Target: isolated recombinant JAK1 kinase domain (Homo sapiens (Human), UniProt P23458)
Settings: read-out: JAK1 Ki; isolated recombinant JAK1 kinase domain, 25 μM ATP

| SMILES | Ki [nM] |
| --- | --- |
| CN1CC(NC(=O)c2ccc(Nc3nc4c(N5CCC(O)(c6ccc(Cl)cc6)CC5)cccn4n3)cc2)C1 [Example 1-92, 4-[[8-[4-(4-chlorophenyl)-4-hydroxy-1-piperidyl]-[1,2,4]triazolo[1,5-a]pyridin-2-yl]amino]-N-(1-methylazetidin-3-yl)benzamide] | 1.68 |
| CC(C)(CN1CCOCC1)NC(=O)c1ccc(Nc2nc3c(N4CCC(O)(c5ccc(Cl)cc5)CC4)cccn3n2)cc1 [Example 1-93, 4-[[8-[4-(4-chlorophenyl)-4-hydroxy-1-piperidyl]-[1,2,4]triazolo[1,5-a]pyridin-2-yl]amino]-N-(1,1-dimethyl-2-morpholino-ethyl)benzamide] | 6.13 |
| O=C(NCCN1CCC(O)CC1)c1ccc(Nc2nc3c(N4CCC(O)(c5ccc(Cl)cc5)CC4)cccn3n2)cc1 [Example 1-95, 4-[[8-[4-(4-chlorophenyl)-4-hydroxy-1-piperidyl]-[1,2,4]triazolo[1,5-a]pyridin-2-yl]amino]-N-[2-(4-hydroxy-1-piperidyl)ethyl] benzamide] | 1.93 |
| CN1CCN(CCCNC(=O)c2ccc(Nc3nc4c(N5CCC(O)(c6ccc(Cl)cc6)CC5)cccn4n3)cc2)CC1 [Example 1-96, 4-[[8-[4-(4-chlorophenyl)-4-hydroxy-1-piperidyl]-[1,2,4]triazolo[1,5-a]pyridin-2-yl]amino]-N-[3-(4-methylpiperazin-1-yl)propyl]benzamide] | 1.72 |
| CN1CCN(CCNC(=O)c2ccc(Nc3nc4c(N5CCC(O)(c6ccc(Cl)cc6)CC5)cccn4n3)cc2)CC1 [Example 1-97, 4-[[8-[4-(4-chlorophenyl)-4-hydroxy-1-piperidyl]-[1,2,4]triazolo[1,5-a]pyridin-2-yl]amino]-N-[2-(4-methylpiperazin-1-yl)ethyl]benzamide] | 1.98 |
| O=C(NCCCN1CCOCC1)c1ccc(Nc2nc3c(N4CCC(O)(c5ccc(Cl)cc5)CC4)cccn3n2)cc1 [Example 1-98, 4-[[8-[4-(4-chlorophenyl)-4-hydroxy-1-piperidyl]-[1,2,4]triazolo[1,5-a]pyridin-2-yl]amino]-N-(3-morpholinopropyl) benzamide] | 1.44 |
| O=C(NCCN1CCOCC1)c1ccc(Nc2nc3c(N4CCC(O)(c5ccc(Cl)cc5)CC4)cccn3n2)cc1 [Example 1-101, 4-[[8-[4-(4-chlorophenyl)-4-hydroxy-1-piperidyl]-[1,2,4]triazolo[1,5-a]pyridin-2-yl]amino]-N-(2-morpholinoethyl)benzamide] | 1.94 |
| CN1CCCC1CCNC(=O)c1ccc(Nc2nc3c(N4CCC(O)(c5ccc(Cl)cc5)CC4)cccn3n2)cc1 (stereo not shown) [Example 1-102, 4-[[8-[4-(4-chlorophenyl)-4-hydroxy-1-piperidyl]-[1,2,4]triazolo[1,5-a]pyridin-2-yl]amino]-N-[2-(1-methylpyrrolidin-2-yl)ethyl]benzamide] | 1.73 |
| CN1CCCCC1CNC(=O)c1ccc(Nc2nc3c(N4CCC(O)(c5ccc(Cl)cc5)CC4)cccn3n2)cc1 (stereo not shown) [Example 1-103, 4-[[8-[4-(4-chlorophenyl)-4-hydroxy-1-piperidyl]-[1,2,4]triazolo[1,5-a]pyridin-2-yl]amino]-N-[(1-methyl-2-piperidyl)methyl]benzamide] | 1.54 |
| CN1CCC(CNC(=O)c2ccc(Nc3nc4c(N5CCC(O)(c6ccc(Cl)cc6)CC5)cccn4n3)cc2)CC1 [Example 1-104, 4-[[8-[4-(4-chlorophenyl)-4-hydroxy-1-piperidyl]-[1,2,4]triazolo[1,5-a]pyridin-2-yl]amino]-N-[(1-methyl-4-piperidyl)methyl]benzamide] | 3.26 |
| O=C(NCCN1CCCC1)c1ccc(Nc2nc3c(N4CCC(O)(c5ccc(Cl)cc5)CC4)cccn3n2)cc1 [Example 1-106, 4-[[8-[4-(4-chlorophenyl)-4-hydroxy-1-piperidyl]-[1,2,4]triazolo[1,5-a]pyridin-2-yl]amino]-N-(2-pyrrolidin-1-ylethyl)benzamide] | 2.27 |
| CC(CN(C)C)NC(=O)c1ccc(Nc2nc3c(N4CCC(O)(c5ccc(Cl)cc5)CC4)cccn3n2)cc1 (stereo not shown) [Example 1-107, 4-[[8-[4-(4-chlorophenyl)-4-hydroxy-1-piperidyl]-[1,2,4]triazolo[1,5-a]pyridin-2-yl]amino]-N-[2-(dimethylamino)-1-methyl-ethyl]benzamide] | 2.77 |
| CN(C)CCNC(=O)c1ccc(Nc2nc3c(N4CCC(O)(c5ccc(Cl)cc5)CC4)cccn3n2)cc1 [Example 1-108, 4-[[8-[4-(4-chlorophenyl)-4-hydroxy-1-piperidyl]-[1,2,4]triazolo[1,5-a]pyridin-2-yl]amino]-N-[2-(dimethylamino)ethyl] benzamide] | 2.77 |
| Cc1cccnc1CN(C)C(=O)c1ccc(Nc2nc3c(N4CCC(O)(c5ccc(Cl)cc5)CC4)cccn3n2)cc1 [Example 1-109, 4-[[8-[4-(4-chlorophenyl)-4-hydroxy-1-piperidyl]-[1,2,4]triazolo[1,5-a]pyridin-2-yl]amino]-N-methyl-N-[(3-methyl-2-pyridyl)methyl]benzamide] | 4.08 |
| O=C(c1ccc(Nc2nc3c(N4CCC(O)(c5ccc(Cl)cc5)CC4)cccn3n2)cc1)N1CCCCC1c1cccnc1 (stereo not shown) [Example 1-110, [4-[[8-[4-(4-chlorophenyl)-4-hydroxy-1-piperidyl]-[1,2,4]triazolo[1,5-a]pyridin-2-yl]amino]phenyl]-[2-(3-pyridyl)-1-piperidyl]methanone] | 4.58 |
| CN(Cc1ccncc1)C(=O)c1ccc(Nc2nc3c(N4CCC(O)(c5ccc(Cl)cc5)CC4)cccn3n2)cc1 [Example 1-111, 4-[[8-[4-(4-chlorophenyl)-4-hydroxy-1-piperidyl]-[1,2,4]triazolo[1,5-a]pyridin-2-yl]amino]-N-methyl-N-(4-pyridylmethyl)benzamide] | 1.49 |
| O=C(c1ccc(Nc2nc3c(N4CCC(O)(c5ccc(Cl)cc5)CC4)cccn3n2)cc1)N1CCN(c2ccccn2)CC1 [Example 1-112, [4-[[8-[4-(4-chlorophenyl)-4-hydroxy-1-piperidyl]-[1,2,4]triazolo[1,5-a]pyridin-2-yl]amino]phenyl]-[4-(2-pyridyl)piperazin-1-yl]methanone] | 11.4 |
| CN1CCN(C(=O)C2CCN(C(=O)c3ccc(Nc4nc5c(N6CCC(O)(c7ccc(Cl)cc7)CC6)cccn5n4)cc3)CC2)CC1 [Example 1-113, [4-[[8-[4-(4-chlorophenyl)-4-hydroxy-1-piperidyl]-[1,2,4]triazolo[1,5-a]pyridin-2-yl]amino]phenyl]-[4-(4-methylpiperazine-1-carbonyl)-1-piperidyl]methanone] | 1.64 |
| O=C(c1ccc(Nc2nc3c(N4CCC(O)(c5ccc(Cl)cc5)CC4)cccn3n2)cc1)N1CCCN(c2ccncc2)CC1 [Example 1-114, [4-[[8-[4-(4-chlorophenyl)-4-hydroxy-1-piperidyl]-[1,2,4]triazolo[1,5-a]pyridin-2-yl]amino]phenyl]-[4-(4-pyridyl)-1,4-diazepan-1-yl]methanone] | 1.86 |
| CCN(Cc1ccncc1)C(=O)c1ccc(Nc2nc3c(N4CCC(O)(c5ccc(Cl)cc5)CC4)cccn3n2)cc1 [Example 1-115, 4-[[8-[4-(4-chlorophenyl)-4-hydroxy-1-piperidyl]-[1,2,4]triazolo[1,5-a]pyridin-2-yl]amino]-N-ethyl-N-(4-pyridylmethyl)benzamide] | 3.02 |
| O=C(c1ccc(Nc2nc3c(N4CCC(O)(c5ccc(Cl)cc5)CC4)cccn3n2)cc1)N1CCN(CCn2ccnc2)CC1 [Example 1-116, [4-[[8-[4-(4-chlorophenyl)-4-hydroxy-1-piperidyl]-[1,2,4]triazolo[1,5-a]pyridin-2-yl]amino]phenyl]-[4-(2-imidazol-1-ylethyl)piperazin-1-yl]methanone] | 2.95 |
| CN1CCN(C2CCN(C(=O)c3ccc(Nc4nc5c(N6CCC(O)(c7ccc(Cl)cc7)CC6)cccn5n4)cc3)CC2)CC1 [Example 1-117, [4-[[8-[4-(4-chlorophenyl)-4-hydroxy-1-piperidyl]-[1,2,4]triazolo[1,5-a]pyridin-2-yl]amino]phenyl]-[4-(4-methylpiperazin-1-yl)-1-piperidyl]methanone] | 2.52 |
| CC1CN(C2CCN(C(=O)c3ccc(Nc4nc5c(N6CCC(O)(c7ccc(Cl)cc7)CC6)cccn5n4)cc3)CC2)CC(C)O1 (stereo not shown) [Example 1-118, [4-[[8-[4-(4-chlorophenyl)-4-hydroxy-1-piperidyl]-[1,2,4]triazolo[1,5-a]pyridin-2-yl]amino]phenyl]-[4-(2,6-dimethylmorpholin-4-yl)-1-piperidyl]methanone] | 2.69 |
| O=C(c1ccc(Nc2nc3c(N4CCC(O)(c5ccc(Cl)cc5)CC4)cccn3n2)cc1)N1CCN(CCN2CCOCC2)CC1 [Example 1-119, [4-[[8-[4-(4-chlorophenyl)-4-hydroxy-1-piperidyl]-[1,2,4]triazolo[1,5-a]pyridin-2-yl]amino]phenyl]-[4-(2-morpholinoethyl)piperazin-1-yl]methanone] | 2.66 |
| COCCN(C(=O)c1ccc(Nc2nc3c(N4CCC(O)(c5ccc(Cl)cc5)CC4)cccn3n2)cc1)C1CCN(C)CC1 [Example 1-120, 4-[[8-[4-(4-chlorophenyl)-4-hydroxy-1-piperidyl]-[1,2,4]triazolo[1,5-a]pyridin-2-yl]amino]-N-(2-methoxyethyl)-N-(1-methyl-4-piperidyl)benzamide] | 5.1 |
| O=C(c1ccc(Nc2nc3c(N4CCC(O)(c5ccc(Cl)cc5)CC4)cccn3n2)cc1)N1CCCCC1Cc1ccccn1 (stereo not shown) [Example 1-121, [4-[[8-[4-(4-chlorophenyl)-4-hydroxy-1-piperidyl]-[1,2,4]triazolo[1,5-a]pyridin-2-yl]amino]phenyl]-[2-(2-pyridylmethyl)-1-piperidyl]methanone] | 2.97 |
| O=C(c1ccc(Nc2nc3c(N4CCC(O)(c5ccc(Cl)cc5)CC4)cccn3n2)cc1)N1CCN(Cc2ccccn2)CC1 [Example 1-122, [4-[[8-[4-(4-chlorophenyl)-4-hydroxy-1-piperidyl]-[1,2,4]triazolo[1,5-a]pyridin-2-yl]amino]phenyl]-[4-(2-pyridylmethyl)piperazin-1-yl]methanone] | 2.71 |
| O=C(c1ccc(Nc2nc3c(N4CCC(O)(c5ccc(Cl)cc5)CC4)cccn3n2)cc1)N1CCN(Cc2cccnc2)CC1 [Example 1-123, [4-[[8-[4-(4-chlorophenyl)-4-hydroxy-1-piperidyl]-[1,2,4]triazolo[1,5-a]pyridin-2-yl]amino]phenyl]-[4-(3-pyridylmethyl)piperazin-1-yl]methanone] | 2.57 |

Reference: patent publication US9873709B2 (priority 2013, dated 2018)
